Experiments:
[1] = tested on: xylene-induced ear swelling in mice; test: Xylene-induced ear swelling in mice; format: in vivo, Kunming mice; conditions: for PI (%): ear swelling, mice; for Swelling degree: mouse ear, 2 h after xylene
Method: 80 Kunming mice were divided into 8 groups with 10 mice for each group and numbered. A physiological saline group was used as a blank control group, an aspirin group (200 mg/kg) was used as a positive control group, and fusion proteins I and II at high, medium and low doses (128, 32, 8 mg/kg) was used as the experimental groups. Mice were administered once by injection every 5 days. The blank control group was given an equal volume of physiological saline. On the fifth day after the administration, 0.05 mL of xylene was applied to both sides of the right ears of the mice to induce inflammation, and the left ears were not applied and were normal ears. After 2 h, the mice were sacrificed by dislocation, and the ears were cut along the auricle. Ear pieces were taken with a puncher and weighed, and the swelling degree and swelling rate were calculated. Swelling degree=right ear piece weight-left ear piece weight, swelling rate=(swelling degree/left ear piece weight)×100%.

[2] = tested on: iris neovascularization in rabbits; test: Iris neovascularization in rabbits; format: in vivo; conditions: rabbit NVI model; 128 μg intravitreal once every 7 days for 2 weeks; third week
[3] = tested on: melanoma cell B16F10; test: MTT assay, proliferation of melanoma cell B16F10; format: cell-based; conditions: 48 h
Method: (§1) The MTT assay was used to detect the inhibitory effect of the integrin blocker fusion protein obtained in Example 1 on the proliferation of various tumor cells, including melanoma cell B16F10, gastric cancer cell MGC-803, lung cancer cell A549, liver cancer cell Hep-G2, breast cancer cell MDA-MB-231, colon cancer cell HCT-116, human glioma U87, and cervical cancer cell Hela.
(§2) The tumor cells were cultured in a 5% CO2 incubator at 37° C. to a density of 90% or more, and collected by trypsinization. The cells were resuspended in the culture liquid and counted under a microscope. The cell concentration was adjusted to 3.0×10^4 cells/mL. The cell suspension was inoculated into a 96-well plate, 100 μL per well, and cultured overnight in a 5% CO2 incubator at 37° C. The fusion proteins I, II, and the positive drug Taxol were diluted with the culture liquid to respective predetermined concentrations. After the cells were fully adhered, each dilution was added to a 96-well plate, 100 μL per well, respectively. The integrin blocker fusion proteins I and II were added as an administration group, Taxol was used as a positive control group, and the culture liquid without any drug was used as a blank control group, and incubated in an 5% CO2 incubator at 37° C. for 48 hours. 20 μL of 5 mg/mL MTT was added to each well of a 96-well plate, and incubation was continued for 4 hours. The medium was aspirated and 100 μL of DMSO per well were added to dissolve. The absorbance was measured at 570 nm with a microplate reader with a reference wavelength of 630 nm, and the proliferation inhibition (PI) was calculated. The formula is as follows: […]
(§3) where Ntest is the OD value of the test group and Ncontrol is the OD value of the blank control group.
(§4) The test was repeated 5 times independently. The results obtained from the test were calculated as mean±SD, and statistical t-test was performed. P<0.05 was considered as significant difference, and P<0.01 was considered as an extremely significant difference.

[4] = tested on: neovascularization in diabetic retinopathy rat model; test: Diabetic retinopathy rat model (STZ); format: in vivo, Wistar rats; conditions: for quantity not named in table (effect on neovascularization in diabetic retinopathy rat model): 100 μg intravitreal every 5 days for 2 weeks; for number of ganglion cells in the retinal / number of visual cells / thickness of each layer of the retinal tissue: 100 μg, compared with the control group
[5] = tested on: breast cancer cell MDA-MB-231; test: MTT assay, proliferation of breast cancer cell MDA-MB-231; format: cell-based; conditions: 48 h
Method: as §1, §2, §3, §4

B1: Protein I: Fc fusion protein Fc-IL4DM-HM3: IgG1-Fc, IL-4 and HM-3 joined by flexible (F) linker; SEQ ID NO: 1 (protein)
chain: [gap - human IgG1 Fc]GGGGSGGGGSGGGGSHKCDITLQEIIKTLNSLTEQKTLCTELTVTDIFAASKNTTEKETFCRAATVLRQFYSHHEKDTRCLGATAQQFHRHKQLIRFLKRLDRNLWGLAGLNSCPVKEANQSTLENFLERLKTIMDEKDSKCSSGGGGSGGGGSGGGGSIVRRADRAAVPGGGGRGD
PI (%) ([1]; 8 mg/kg): 7.21% | PI (%) ([1]; 32 mg/kg): 21.77% | PI (%) ([1]; 128 mg/kg): 37.09% | Swelling degree ([1]; 8 mg/kg): 6.18 ± 0.20 mg | Swelling degree ([1]; 32 mg/kg): 5.21 ± 0.31 mg | Swelling degree ([1]; 128 mg/kg): 4.19 ± 0.28 mg | iris neovascularization (optical and electron microscope) [2]: could inhibit neovascularization and regress the formed blood vessels | A570 nm/A630 nm ([3]; 1 μg/mL): 1.1081 ± 0.0159 | PI (%) ([3]; 1 μg/mL): 11.75% | A570 nm/A630 nm ([3]; 2 μg/mL): 1.0012 ± 0.0786 | PI (%) ([3]; 2 μg/mL): 20.26% | A570 nm/A630 nm ([3]; 4 μg/mL): 0.8611 ± 0.0643 | PI (%) ([3]; 4 μg/mL): 31.42% | A570 nm/A630 nm ([3]; 8 μg/mL): 0.6974 ± 0.0421 | PI (%) ([3]; 8 μg/mL): 44.46% | A570 nm/A630 nm ([3]; 16 μg/mL): 0.5234 ± 0.0769 | PI (%) ([3]; 16 μg/mL): 58.31% | A570 nm/A630 nm ([3]; 32 μg/mL): 0.4331 ± 0.0591 | PI (%) ([3]; 32 μg/mL): 65.51% | A570 nm/A630 nm ([3]; 64 μg/mL): 0.3032 ± 0.0279 | PI (%) ([3]; 64 μg/mL): 75.85% | A570 nm/A630 nm ([3]; 128 μg/mL): 0.1954 ± 0.0499 | PI (%) ([3]; 128 μg/mL): 84.44% | A570 nm/A630 nm ([3]; 256 μg/mL): 0.0834 ± 0.0334 | PI (%) ([3]; 256 μg/mL): 93.36% | quantity not named in table (effect on neovascularization in diabetic retinopathy rat model) ([4]; Week 4): 182.03 ± 3.42 | quantity not named in table (effect on neovascularization in diabetic retinopathy rat model) ([4]; Week 8): 211.04 ± 3.33 | quantity not named in table (effect on neovascularization in diabetic retinopathy rat model) ([4]; Week 12): 252.36 ± 1.34 | number of ganglion cells in the retinal [4]: increased | number of visual cells [4]: increased | thickness of each layer of the retinal tissue [4]: increased | A570 nm/A630 nm ([5]; 1 μg/mL): 0.8133 ± 0.0262 | PI (%) ([5]; 1 μg/mL): 5.77% | A570 nm/A630 nm ([5]; 2 μg/mL): 0.7992 ± 0.0250 | PI (%) ([5]; 2 μg/mL): 7.40% | A570 nm/A630 nm ([5]; 4 μg/mL): 0.7798 ± 0.0409 | PI (%) ([5]; 4 μg/mL): 9.65% | A570 nm/A630 nm ([5]; 8 μg/mL): 0.7371 ± 0.0378 | PI (%) ([5]; 8 μg/mL): 14.60% | A570 nm/A630 nm ([5]; 16 μg/mL): 0.6706 ± 0.0185 | PI (%) ([5]; 16 μg/mL): 22.30% | A570 nm/A630 nm ([5]; 32 μg/mL): 0.6109 ± 0.0130 | PI (%) ([5]; 32 μg/mL): 29.22% | A570 nm/A630 nm ([5]; 64 μg/mL): 0.5499 ± 0.0186 | PI (%) ([5]; 64 μg/mL): 36.29% | A570 nm/A630 nm ([5]; 128 μg/mL): 0.4982 ± 0.0326 | PI (%) ([5]; 128 μg/mL): 42.28% | A570 nm/A630 nm ([5]; 256 μg/mL): 0.4410 ± 0.0171 | PI (%) ([5]; 256 μg/mL): 48.91%

B2: Protein II: Fc fusion protein Fc-IL4DM-HM3: IgG1-Fc, IL-4 and HM-3 joined by rigid (R) linker; SEQ ID NO: 2 (protein)
chain: [gap - human IgG1 Fc]AEAAAKEAAAKEAAAKEAAAKAHKCDITLQEIIKTLNSLTEQKTLCTELTVTDIFAASKNTTEKETFCRAATVLRQFYSHHEKDTRCLGATAQQFHRHKQLIRFLKRLDRNLWGLAGLNSCPVKEANQSTLENFLERLKTIMDEKDSKCSSAEAAAKEAAAKEAAAKEAAAKAIVRRADRAAVPGGGGRGD
PI (%) ([1]; 8 mg/kg): 11.11% | PI (%) ([1]; 32 mg/kg): 24.77% | PI (%) ([1]; 128 mg/kg): 41.59% | Swelling degree ([1]; 8 mg/kg): 5.92 ± 0.15 mg | Swelling degree ([1]; 32 mg/kg): 5.01 ± 0.84 mg | Swelling degree ([1]; 128 mg/kg): 3.89 ± 0.39 mg | iris neovascularization (optical and electron microscope) [2]: could inhibit neovascularization and regress the formed blood vessels | A570 nm/A630 nm ([3]; 1 μg/mL): 1.1154 ± 0.0382 | PI (%) ([3]; 1 μg/mL): 11.17% | A570 nm/A630 nm ([3]; 2 μg/mL): 1.0259 ± 0.0232 | PI (%) ([3]; 2 μg/mL): 18.29% | A570 nm/A630 nm ([3]; 4 μg/mL): 0.8991 ± 0.0725 | PI (%) ([3]; 4 μg/mL): 28.39% | A570 nm/A630 nm ([3]; 8 μg/mL): 0.7251 ± 0.0429 | PI (%) ([3]; 8 μg/mL): 42.25% | A570 nm/A630 nm ([3]; 16 μg/mL): 0.6411 ± 0.0659 | PI (%) ([3]; 16 μg/mL): 48.94% | A570 nm/A630 nm ([3]; 32 μg/mL): 0.5034 ± 0.0279 | PI (%) ([3]; 32 μg/mL): 59.91% | A570 nm/A630 nm ([3]; 64 μg/mL): 0.3865 ± 0.0189 | PI (%) ([3]; 64 μg/mL): 69.22% | A570 nm/A630 nm ([3]; 128 μg/mL): 0.2939 ± 0.0319 | PI (%) ([3]; 128 μg/mL): 76.59% | A570 nm/A630 nm ([3]; 256 μg/mL): 0.1749 ± 0.0209 | PI (%) ([3]; 256 μg/mL): 85.07% | quantity not named in table (effect on neovascularization in diabetic retinopathy rat model) ([4]; Week 4): 188.26 ± 2.23 | quantity not named in table (effect on neovascularization in diabetic retinopathy rat model) ([4]; Week 8): 212.33 ± 4.59 | quantity not named in table (effect on neovascularization in diabetic retinopathy rat model) ([4]; Week 12): 257.92 ± 3.88 | number of ganglion cells in the retinal [4]: increased | number of visual cells [4]: increased | thickness of each layer of the retinal tissue [4]: increased | A570 nm/A630 nm ([5]; 1 μg/mL): 0.8213 ± 0.0202 | PI (%) ([5]; 1 μg/mL): 4.84% | A570 nm/A630 nm ([5]; 2 μg/mL): 0.8008 ± 0.0199 | PI (%) ([5]; 2 μg/mL): 7.22% | A570 nm/A630 nm ([5]; 4 μg/mL): 0.7805 ± 0.0430 | PI (%) ([5]; 4 μg/mL): 9.57% | A570 nm/A630 nm ([5]; 8 μg/mL): 0.7219 ± 0.0333 | PI (%) ([5]; 8 μg/mL): 16.36% | A570 nm/A630 nm ([5]; 16 μg/mL): 0.6779 ± 0.0130 | PI (%) ([5]; 16 μg/mL): 21.46% | A570 nm/A630 nm ([5]; 32 μg/mL): 0.6186 ± 0.0160 | PI (%) ([5]; 32 μg/mL): 28.33% | A570 nm/A630 nm ([5]; 64 μg/mL): 0.5555 ± 0.0331 | PI (%) ([5]; 64 μg/mL): 35.70% | A570 nm/A630 nm ([5]; 128 μg/mL): 0.5011 ± 0.0275 | PI (%) ([5]; 128 μg/mL): 41.94% | A570 nm/A630 nm ([5]; 256 μg/mL): 0.4476 ± 0.0282 | PI (%) ([5]; 256 μg/mL): 48.06%
